B1: tRNA (parent)
chain: CUCUCGGUAGCCAAGUUGGUUUAAGGCGCAAGACUUUAAUUUAUCACUACGAAAUCUUGAGAUCGGGCGUUCGACUCGCCCCCGGGAGAUUUUUUCCUCGAGCAA

This sample is rich in variants without activity. Where only a bound is given, the exact number is not on record here.

Variants of B1 are the subject of this series. Nature of the series: nonsense suppression (GFP-seq) (ratio to wild type); higher = more function; SUP4oc tRNA, yeast GFP reporter sort-seq. A digest of the protocol:
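Yeast were grown in raffinose/galactose medium with 80 mg/L adenine, each strain bearing a genome-integrated ochre-suppressor tRNA variant from a ~3% random-mutation library, a galactose-driven GFP ochre reporter, and RFP. After sorting into GFP/RFP bins, every bin was sequenced on an Illumina platform at phred ≥30. The GFPSEQ value, a measure of nonsense suppression, is the weighted bin median GFP/RFP relative to the unmutated parent tRNA, using each variant's estimated cell share per bin as the weight. Only variants with ≥100 reads and ≥30 cells were included.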
Consider C5U C27G G32U C83G, for which the nonsense suppression is at most 0.026.
Turning to U21A C80G G84C, the nonsense suppression was at most 0.026.
As to G7C, the nonsense suppression was at most 0.026.
Under A31G A54C G84U stands at most 0.026.
Under G18A U70A stands at most 0.026; under C1G U21G U22C, at most 0.026; under C11U C77A A87U, at most 0.026.
On to G66A G73A G86U, for which the nonsense suppression was at most 0.026.
On to G18C A31C U55C U57A, for which the nonsense suppression was at most 0.026.
Turning to C27G G65A C79A, the nonsense suppression is at most 0.026.
Under U58G G67U C77A stands at most 0.026; under U17A G65A, at most 0.026; under G6U G7C G59U, at most 0.026.
Take C1G U17A: the nonsense suppression is at most 0.026.
Consider U63A U70C C82G, for which the nonsense suppression is at most 0.026.
Turning to G25C C29G G84C, the nonsense suppression was at most 0.026.
On to C11U C83A G86C, for which the nonsense suppression is at most 0.026.
Under U4G U17A G19U G84A stands at most 0.026.
As for C3A A54C C81A, the nonsense suppression was at most 0.026.
For G10A A23U C56U C68U C81A, the nonsense suppression was at most 0.026.
With U35A C56G G69A, the nonsense suppression is at most 0.026.
Turning to G6A A30G C80A, the nonsense suppression was at most 0.026.
A62C C64A G85A G88A: the nonsense suppression was at most 0.026.
Take A14G G19U A31U C64U: the nonsense suppression was at most 0.026.
For the variant C5G A33U, the nonsense suppression is at most 0.026.
Turning to G26C C64A, the nonsense suppression was at most 0.026.
Under G7U G78A stands at most 0.026.
For the variant U16C U17C G65U G78A, the nonsense suppression was at most 0.026.
With G7C C27A G59U C79A, the nonsense suppression is at most 0.026.
Under C5G U22G stands at most 0.026.
Regarding U55A G73C C75U C79A, the nonsense suppression was at most 0.026.
Regarding A23G G67C G73C, the nonsense suppression was at most 0.026.
With U21G A60G G66C, the nonsense suppression was at most 0.026.
Regarding C1U U55A G85A, the nonsense suppression was at most 0.026.
Under A14U G25U G32C A89C stands at most 0.026; under A13G A62G, at most 0.026.
In the case of A9G C27U, the nonsense suppression worked out at 0.0421.
Under A13C U57A stands at most 0.026.
G28U A33C U63A U71G: the nonsense suppression was at most 0.026.
As for U71G C81A, the nonsense suppression was at most 0.026.
Turning to G10A G88A A89G, the nonsense suppression is at most 0.026.
As for G10A A62C U71C C83G, the nonsense suppression is at most 0.026.
In the case of G28U A74G G85U, the nonsense suppression is at most 0.026.
Under A23U G61A C75G G86U stands at most 0.026.
Consider C64A U76A, for which the nonsense suppression is at most 0.026.
As to U20G A74G, the nonsense suppression was at most 0.026.
With A14G G69U, the nonsense suppression is at most 0.026.
Under A24G C79G G86C stands at most 0.026.
Regarding G26C G84C A89G, the nonsense suppression is at most 0.026.
As for C12G A14U G86C, the nonsense suppression was at most 0.026.
In the case of U4G C5U C27G, the nonsense suppression was at most 0.026.
For G6C A9C A13U U22A C29U U70C, the nonsense suppression is at most 0.026.
U21G C34U G73C: the nonsense suppression was at most 0.026.
G61A U70A A87U: the nonsense suppression is at most 0.026.
Under C3A G88C stands at most 0.026; under C5G G69A, at most 0.026; under U17G G67U A74G A89C, at most 0.026.
For C29U A60C G65U C72G, the nonsense suppression was at most 0.026.
As for U2G G18A G59U A62G C77G, the nonsense suppression is at most 0.026.
On to U63G C81U, for which the nonsense suppression was at most 0.026.
In the case of A31U G67U G88U, the nonsense suppression was at most 0.026.
Under C5G C29A G65A U71A C72A stands at most 0.026.
As to A9G U70A, the nonsense suppression is at most 0.026.
Under G26U A31C U55G G65C stands at most 0.026.
Under U20G C34G G88U stands at most 0.026.
As to U22C U58A G61U, the nonsense suppression is at most 0.026.
As for U20A C72G, the nonsense suppression is at most 0.026.
Under C1G G25C A30U C68A G73C C77A stands at most 0.026.
In the case of C34U U63C G84U, the nonsense suppression is at most 0.026.
As for G10A A62G C64A, the nonsense suppression is at most 0.026.
Under U63C G88C stands at most 0.026; under G32A A33U U63A G67C, at most 0.026.
As to C27G G65U C79G, the nonsense suppression was at most 0.026.
For the variant A31U U55G C77U, the nonsense suppression was at most 0.026.
Under U2A U35C G73C stands at most 0.026; under A54G G61C G86U, at most 0.026.
Consider G10A A13U G65U G73U, for which the nonsense suppression is at most 0.026.
In the case of U22G A23C U71C, the nonsense suppression is at most 0.026.
Turning to C11G G15U G78C, the nonsense suppression was at most 0.026.
As for U57G C77U, the nonsense suppression is at most 0.026.
Consider G6U A13U U35G A62C A89U, for which the nonsense suppression was at most 0.026.
Under U22G U55A C68U A74G stands at most 0.026; under A33C C64G C80A, at most 0.026; under G32C A89G, at most 0.026.

Source of the values: the RNAGym collection of RNA variant scans (doi:10.1101/gad.245936.114).
